Experimental findings from PubChem BioAssay AID320 (DTP/NCI, 2004) are described below.

The assay deals with BDF1 mice, P329 reticulum cell sarcoma ip, survival T/C. As to the kind of experiment: NCI In Vivo Anticancer Drug Screen. Data for tumor model P329 Reticulum Cell Sarcoma (intraperitoneal) in B6D2F1 (BDF1) mice. The note with it: endpoint: median survival time, schedule: Q01DX010 (ip), higher = longer survival. The protocol: The antitumor activity of compounds was measured in mice bearing transplantable tumors. Survival or tumor size were measured and the results are expressed as the measurement made in the treated group (T) divided by the measurement made in the vehicle treated control group (C). The tumor model used in this assay is P329 Reticulum Cell Sarcoma (intraperitoneal) in B6D2F1 (BDF1) mice

Inconclusive results and toxic doses are left out. Some entries of the source have several records that differ or are many. The other results are left out here. The source may hold further records. Values given together are repeated measurements in other runs, samples, wells, individuals or studies.

Consider `CN(Cc1cnc2nc(N)nc(N)c2n1)c1ccc(C(=O)N[C@@H](CCC(=O)O)C(=O)O)cc1`, for which, under “dose: 1.5 mg/kg/injection, vehicle: other”, the T/C is recorded as 100 % of control, 115 % of control, 166 % of control. Take `N#CCSc1ncnc2nc[nH]c12`: the T/C (dose: 60.0 mg/kg/injection, vehicle: saline) was 123 % of control and 153 % of control.

Turning to `CSc1ncnc2nc[nH]c12`, the T/C (dose: 50.0 mg/kg/injection, vehicle: saline) is 123 % of control and 153 % of control; the T/C (dose: 200.0 mg/kg/injection, vehicle: saline) was 123 % of control and 153 % of control.

Take `CCn1cnc2c(=S)nc[nH]c21`: the T/C (dose: 62.5 mg/kg/injection, vehicle: saline) is 117 % of control and 169 % of control.
